# Assay results: the supplement of paper PMC11417369
# ± gives the standard deviation of the averaged measurements. The list shows a part of the results.
# Tested on: PfAP2-I AP2 domain 3 (GST-tagged)
# Assay: gcPBM binding intensity (ln(normalized median fluorescence intensity)); higher = stronger DNA binding
# Summary of the method: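 The binding buffer was 1× PBS containing 1% milk, 0.2 mg/ml BSA, 0.5% salmon testes DNA and 0.03% Triton X-100. In it, GST-tagged P. falciparum DNA-binding domains expressed in E. coli were applied for 1 h to an Agilent 4 × 180k array of primer-extended double-stranded 36-bp intergenic genomic probes plus negative controls. Binding intensity, read with Alexa488 anti-GST antibody and a 488 nm scan, is the highest Masliner-normalised natural-log median intensity across replicate spots of either probe orientation.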
row,Sequence,gcPBM binding intensity (ln)
1,GTATATATGTATATATGTACATATATACATTTTGTT [XGTACX_site7320],8.34 ± 0.71
2,TATATATTTAACAATCGTACATATTTACAAATATAA [XGTACX_site2131],7.57 ± 0.26
3,TTATAACAACTGGAATGATTAACAATAAATATTAAA [CACACA_negctrl_site1723],7.62 ± 0.45
4,TTAAATAATATTAAATGTACATATTATTATGATATA [XGTACX_site6189],7.58 ± 0.23
5,AGGAGACTTAAAAAAAGTACAAAAAAAAAAAAAAGC [XGTACX_site1576],8.15 ± 0.54
6,ACAGAAAAAAAACACACACACATAATATACATACAT [CACACA_site1932],7.97 ± 0.51
7,TATACATATATAAATGCATGTTGATATTAATAGTTA [TGCATGCA_site639],7.75 ± 0.57
8,ATTTAGAAAAATAAAACACACATATAGATGTAAATA [CACACA_site7853],7.5 ± 0.63
9,ATATTTCTGTCAAGCACACATAATATTAAAATATGT [CACACA_site4330],7.91 ± 0.49
10,ATGTTTGTCTATAGCTGTACCTATTTATAAAACGTA [XGTACX_site7157],8.04 ± 0.49
11,TCATATTATAATGTGAGTACATATAATAAATAAGTT [XGTACX_site2470],7.74 ± 0.27
12,TTAATATGATATATATATATATATATATATATATAT [CACACA_negctrl_site683],9.1 ± 0.62
13,GTAAAAATTTTAAATACATGCAAGCGATTAATATGA [TGCATGCA_site80],7.75 ± 0.79
14,ACCTCATAATATTTAACACACAAAATTAAATGTATG [CACACA_site6898],8 ± 0.31
15,TTTCAAAAAAATAATGTGCACATTAGAAAATAAATA [GTGCAC_site9416],9.59 ± 0.29
16,TTTTATACATATTTTACACACTAAAATATACATATA [CACACA_site324],8.05 ± 0.54
17,GAAGTATTTATTTATGCATGCAAATATACAAAAAAA [TGCATGCA_site975],8.32 ± 0.77
18,ACATATATTTAAAAATGTACTTACATATATTTTTTA [XGTACX_site6050],7.55 ± 0.45
19,ATAAAATAAATATTTTGTTATTTATTTAATCTAATA [XGTACX_negctrl_site404],7.2 ± 0.38
20,TAAATATTTTTAGATGCATGCAATAATTACCCAAAG [TGCATGCA_site636],8.15 ± 0.78
21,TTATTATTATTACTAGTGCATTAATTATATATGTAA,11.6 ± 0.49
22,TTTTTTTTTTCTGAAAGTACTAATTTCCTGGAGGAA [XGTACX_site759],7.64 ± 0.65

row,Sequence,gcPBM binding intensity (ln)
1,TTATGTTGTAAATGCACACATACATAAACTCAGTTT [CACACA_site5639],9.92 ± 0.44
2,AAAAATAAAATAAAGAAGGAAAATAAAAAAATAAGG [CACACA_negctrl_site1811],7.84 ± 0.57
3,AGGAGGTCAGTTCACAGTACCCAGGAAATCTACGGA [XGTACX_site2552],7.7 ± 0.52
4,AAACATAAGAGACACACACACATATATAAATAAATA [CACACA_site7674],7.75 ± 0.4
5,AATTTCATAAATATAACTGAGAATAAATAAACAAAG [GTGCAC_negctrl_site146],7.85 ± 0.44
6,CCTGTAAATAAATATAAATACATATTTCTAATATAT [GTGCAC_negctrl_site21],7.51 ± 0.43
7,ATATAAAAATGTGTATGTACACACTTTATTTTTAAT [XGTACX_site5272],7.8 ± 0.3
8,AAATTACAAATACAAACACACAAATGTTTTTCATTC [CACACA_site3552],7.43 ± 0.59
9,TTTTTCTATAAAAAATGTACATATTTTATGAAGGAA [XGTACX_site821],7.96 ± 0.5
10,TTAAAAAACCTTAGATGTACAGTTATATATAAAATA [XGTACX_site6688],7.75 ± 0.45
11,ATCCTTTATTTTTTTTGTACATAAAAATAACTCGAG [XGTACX_site3885],8.2 ± 0.43
12,TGAACACACGAGCACACACACACATCTATATTTATA [CACACA_site6607],8.15 ± 0.49
13,TGGAATAATACGCGTACACACATATATATATTAATA [CACACA_site131],8.14 ± 0.4
14,AGGTATCAAAAATATGCATGCAATATTTTATGTAAT [TGCATGCA_site1055],8 ± 0.86
15,AAAAAAAAATTAATATATAAAAGGATATATATATAT [GTGCAC_negctrl_site449],9.08 ± 0.21
16,GAATAATATATATATTGTACTTTTTATTTATATTAT [XGTACX_site3180],7.8 ± 0.36
17,AAAATATAATATAATGCACACATAAAACAAAAAAAA [CACACA_site8989],10.7 ± 0.67
18,CTTTTTTTTTTTTTTACACACCCAAATCACATACAT [CACACA_site4051],8.45 ± 0.28
19,ATATATATATTTATATGTACGAAATATAAAAAAAAA [XGTACX_site5054],8.59 ± 0.47
20,ACATATAAATATATTACACACACACTAAAAAAATAA [CACACA_site6209],7.95 ± 0.3
21,CACCTTATAAATACTGCACACATAAAATATATATTA [CACACA_site8908],10.2 ± 0.49
22,CTTATCAAAAAAAAAGCATGCCACAGGCAAAAGGTA [TGCATGCA_site574],7.76 ± 0.88

row,Sequence,gcPBM binding intensity (ln)
1,ATATATATATATATATGTACATATATACATATACAT [XGTACX_site2350],9.3 ± 0.55
2,AAGAAAAACTTTACGTGTACCAAACATCCTGCCAAC [XGTACX_site598],8.14 ± 0.42
3,AGTGATACTAATTTTTGTACGCATAAAAGAATATTC [XGTACX_site6055],8.1 ± 0.32
4,TATATTGATGATGATAGTACGTATGATTAGAAAAAA [XGTACX_site8989],7.92 ± 0.63
5,ATAGACAGCGCACAAACACACAAACACCCACCCACA [CACACA_site8043],9.12 ± 0.16
6,TATATATATATGTGTACACAATTTATCTGTATTTAT [CACACA_site5945],9.31 ± 0.19
7,AAAAAAAAAAAAATACGTACATACATACCTACATAT [XGTACX_site233],8.21 ± 0.099
8,TTTTTTTTTTTTTTTTGTACGTATCAAAAAATTTGT [XGTACX_site1023],7.95 ± 0.56
9,AATCAATAAATAAAAACATGCATATATATATATATA [TGCATGCA_site438],9.46 ± 0.43
10,AAAAATAAATTTAGTTGTACTTTATTATTTTAAATA [XGTACX_site3067],7.61 ± 0.39
11,CATTAATAAAAAAAAAGTACAAAAAATATATATATT [XGTACX_site2091],7.88 ± 0.54
12,AAAATAAAAATATTCACACATACAAAAATTATACAA [CACACA_site5136],7.54 ± 0.6
13,ATAATATATATATATAGTACATATATATAATATTCT [XGTACX_site2445],7.735 ± 0.049
14,ATTTTTTTACTGTAACCATATTTTTCCCTTTTATTC [CACACA_negctrl_site1143],7.95 ± 0.79
15,CCATTAAATACATACACACCCACACCCAAAAAAAAA [CACACA_site4633],9.29 ± 0.39
16,AAAAAAAAAAATATAACACACAAAAAATTGTATCGA [CACACA_site1144],7.53 ± 0.26
17,ACAAAATTTACAAAATGTACATATTGTAGATATTGT [XGTACX_site7618],7.55 ± 0.52
18,ATATAGTAAAATTATACACACATGAATTTTCCCATA [CACACA_site3113],7.75 ± 0.52
19,TAAAAATATATACATACATGCATACATATATATGTA [TGCATGCA_site774],7.56 ± 0.44
20,TTTTTAACATATCATACACACAACAACTTTTTATAG [CACACA_site1962],7.9 ± 0.55
21,CAAGCCCTTCTGCTTACACACAGTAATTATTGTGTA [CACACA_site2953],7.52 ± 0.78
22,ATTATATATACACGCACACACACTTATATATATATA [CACACA_site9093],9.34 ± 0.3

row,Sequence,gcPBM binding intensity (ln)
1,CATTCATTTATTAATTGTACTTTTAAGGTTAAATAA [XGTACX_site5838],7.6 ± 0.26
2,TAATTTATTATATTTTGTACGTAAAATTATTATTGT [XGTACX_site8155],7.87 ± 0.28
3,TAGGAAAAGAAAAGCACACACATAAATAAATATATA [CACACA_site504],7.96 ± 0.26
4,AATATATATTTATATTGTACATATATATATATTTCT [XGTACX_site2603],7.55 ± 0.34
5,AATATTTATTTTACATGTACTTATTTTTCTTTTAAC [XGTACX_site3631],8.22 ± 0.21
6,CACATACAGACATACACACACATATAGATTAATATA [CACACA_site6399],7.93 ± 0.23
7,AATAAGAAATGTAAATGTACATAAAAAAAAGTATAT [XGTACX_site3573],8.2 ± 0.68
8,TATATATATATATTATGTACATATATATTAAATATG [XGTACX_site2494],8.91 ± 0.092
9,TTAGGGTTTTATAAATGTACTTATTTATACATCCTC [XGTACX_site5769],7.64 ± 0.46
10,ATTTTTTAACATATCATACACACAACCACTTTTTAT [CACACA_site1961],8.35 ± 0.23
11,TAAACATTTTTGCACGCACACAAAAAAAAAATAAAA [CACACA_site167],9.94 ± 0.42
12,TATTTATATTTTAACACACACATATTTATATTTATA [CACACA_site7324],7.92 ± 0.39
13,ATTTATTCATTTGGGTGTACTATTTAAAAAAAACAA [XGTACX_site498],8.59 ± 0.26
14,TATATATAATTTTATACATGCACATATTATATATAT [TGCATGCA_site1036],8.65 ± 0.67
15,TATATTTTTTAAACCACACACAATATAGAGTATAAT [CACACA_site4510],7.98 ± 0.48
16,TTTATATACTATTCAAAGTGATAAATAATATATGAA [TGCATGCA_negctrl_site352],7.49 ± 0.56
17,TATAAATAAAGACACACACACATATAAATAAATATA [CACACA_site7155],7.87 ± 0.42
18,ATTTATTTATTAAGATGTACTTATTAAAAATAATAA [XGTACX_site7392],7.54 ± 0.16
19,AAAAAAAAAAAACATACACACAATAAAATAGGGGTA [CACACA_site2399],7.87 ± 0.42
20,AAAAAAAAAAAACATACACACAAATATGTACATACA [CACACA_site7807],7.75 ± 0.3
21,TATATATTAATATATGCATGTACGATTATTATAATA [TGCATGCA_site446],7.95 ± 0.48
22,TAAATACAAAAATGTACACACATATAAATATTTTTA [CACACA_site7612],7.76 ± 0.15
